These results are taken from PMC4336329 (PLoS ONE, 2015).

The whole screen tested about 310,000 compounds, of which about 14,000 (4.5%) showed an effect of 50% or more. Effects have a minus sign here. Some of the results follow.
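Also: peak tail current of the secondary pulse compared with the same well before compound.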

In this assay the target is human ether-à-go-go-related gene (hERG) potassium channel (human, UniProt Q12809). Put plainly: primary screen, population patch clamp on CHO cells stably expressing hERG.
human ether-à-go-go-related gene (hERG) potassium channel, sequence (Q12809 whole entry, looked up): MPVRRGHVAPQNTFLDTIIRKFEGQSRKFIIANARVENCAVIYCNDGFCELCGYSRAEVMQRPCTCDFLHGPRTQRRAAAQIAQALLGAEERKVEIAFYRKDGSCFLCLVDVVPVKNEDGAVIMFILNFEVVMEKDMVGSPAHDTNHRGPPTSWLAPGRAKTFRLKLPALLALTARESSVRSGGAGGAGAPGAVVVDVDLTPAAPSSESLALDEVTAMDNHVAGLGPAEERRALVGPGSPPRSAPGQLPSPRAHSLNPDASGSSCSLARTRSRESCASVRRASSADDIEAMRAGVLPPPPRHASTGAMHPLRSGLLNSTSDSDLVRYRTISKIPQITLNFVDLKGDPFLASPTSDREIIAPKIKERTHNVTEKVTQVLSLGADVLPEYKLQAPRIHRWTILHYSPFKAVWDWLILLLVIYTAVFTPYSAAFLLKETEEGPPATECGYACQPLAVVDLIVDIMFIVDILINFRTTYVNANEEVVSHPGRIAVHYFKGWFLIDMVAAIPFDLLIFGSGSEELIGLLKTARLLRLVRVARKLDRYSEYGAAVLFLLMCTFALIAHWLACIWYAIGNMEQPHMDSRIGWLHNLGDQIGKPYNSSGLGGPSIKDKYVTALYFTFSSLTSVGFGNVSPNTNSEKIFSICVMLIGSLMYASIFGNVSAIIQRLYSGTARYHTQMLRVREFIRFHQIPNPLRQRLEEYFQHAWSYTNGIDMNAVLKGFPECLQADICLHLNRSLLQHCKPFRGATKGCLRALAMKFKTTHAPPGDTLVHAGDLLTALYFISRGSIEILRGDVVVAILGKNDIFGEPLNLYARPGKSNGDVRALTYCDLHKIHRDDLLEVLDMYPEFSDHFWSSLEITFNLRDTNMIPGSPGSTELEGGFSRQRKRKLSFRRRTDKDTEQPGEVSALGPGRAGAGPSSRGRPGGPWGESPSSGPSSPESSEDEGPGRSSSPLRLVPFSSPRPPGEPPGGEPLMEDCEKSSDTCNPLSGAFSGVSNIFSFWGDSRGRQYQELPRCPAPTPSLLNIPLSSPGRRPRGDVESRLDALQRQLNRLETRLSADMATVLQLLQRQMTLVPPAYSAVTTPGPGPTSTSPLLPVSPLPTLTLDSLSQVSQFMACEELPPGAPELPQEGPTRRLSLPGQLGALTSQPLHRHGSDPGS
As to `NS(=O)(=O)c1ccc(CCNC(=O)c2ccc(-c3ccccc3)cc2)cc1`, the “hERG current change (%, negative = inhibition) at 10uM” value is 9.92%.

For the compound `O=C(CSc1ncn[nH]1)CSc1ncn[nH]1`, the “hERG current change (%, negative = inhibition) at 10uM” value turned out to be 13.6%.

In the case of `COC(=O)C1(CCSC)NC(c2ccccc2OC)C2C(=O)N(C)C(=O)C21` (centres unmarked), the “hERG current change (%, negative = inhibition) at 10uM” value is given as -4.79%.

As to `COC(=O)C1=C(C)NC(=O)/C1=C\c1ccc2c(c1)OCO2`, the “hERG current change (%, negative = inhibition) at 10uM” value worked out at 5.31%.

As for `CN(CC(=O)NCCc1ccccn1)S(=O)(=O)c1ccc(Cl)cc1`, the “hERG current change (%, negative = inhibition) at 10uM” value is given as -17%.

As for `O=C(CN(C1CCCCC1)S(=O)(=O)c1ccc(Cl)cc1)NCc1ccncc1`, the “hERG current change (%, negative = inhibition) at 10uM” value is -69.8%.

Turning to `O=C(CC1C(=O)N(c2ccc(F)cc2)C(=O)N1Cc1ccccn1)Nc1ccccc1` (centres unmarked), the “hERG current change (%, negative = inhibition) at 10uM” value was -6.3%.

Take `O=C(O)c1cc(C(=O)C2CC2)c[nH]1`: the “hERG current change (%, negative = inhibition) at 10uM” value was determined as 11.5%.

On to `Cc1ccccc1OCCCCn1c(CO)nc2ccccc21`, for which the “hERG current change (%, negative = inhibition) at 10uM” value is given as -45.1%.

For `CC1CN(C(=O)C(C)N2CCN(c3ccccc3Cl)CC2)CC(C)O1` (centres unmarked), the “hERG current change (%, negative = inhibition) at 10uM” value was found to be 5.63%.

Regarding `O=C(Nc1ccc(S(=O)(=O)N2CCCCC2)cc1)c1ccccc1Cl`, the “hERG current change (%, negative = inhibition) at 10uM” value is on record as -73.1%.

Turning to `CN(C)CCCn1c(=O)n(C2CCCCC2)c(=O)c2c3c(sc21)CCCCC3`, the “hERG current change (%, negative = inhibition) at 10uM” value is -53.8%.

For `CCOc1ccc(NC(=O)Cn2nc(-c3ccccc3Cl)n(CC)c2=S)cc1`, the “hERG current change (%, negative = inhibition) at 10uM” value is given as -0.968%.

Turning to `CCCCn1c(N)c(N(CC(C)C)C(=O)CCC2CCCCC2)c(=O)[nH]c1=O`, the “hERG current change (%, negative = inhibition) at 10uM” value is listed as -8.68%.

With `Cc1ccc(/C([O-])=C(/C(=S)NCCN2CCOCC2)[n+]2ccccc2)cc1[N+](=O)[O-]`, the “hERG current change (%, negative = inhibition) at 10uM” value is 18.8%.

Take `COc1ccc(N(CC(=O)N2CCN(C)CC2)S(=O)(=O)c2ccccc2)cc1OC`: the “hERG current change (%, negative = inhibition) at 10uM” value is reported as 4.24%.

With `COc1ccc(OCC(=O)OC2CCN(C)CC2)cc1.Cl`, the “hERG current change (%, negative = inhibition) at 10uM” value is -2.74%.

Consider `O=[N+]([O-])c1cccc2cn[nH]c12`, for which the “hERG current change (%, negative = inhibition) at 10uM” value was found to be 5.18%.

As to `COc1ccc(Cl)cc1N(CC(=O)Nc1ccccc1C(=O)NCc1ccco1)S(C)(=O)=O`, the “hERG current change (%, negative = inhibition) at 10uM” value worked out at 14%.

Take `CC(NC(=O)c1cc(Br)ccc1Cl)c1ccccc1` (centres unmarked): the “hERG current change (%, negative = inhibition) at 10uM” value is on record as 1.19%.

With `CCc1c(C)nc2ncnn2c1NC1CCCc2ccccc21` (centres unmarked), the “hERG current change (%, negative = inhibition) at 10uM” value is -12.1%.

Consider `O=C(NCCN1CCN(c2ccc([N+](=O)[O-])cc2)CC1)NCc1ccccc1`, for which the “hERG current change (%, negative = inhibition) at 10uM” value is on record as -67.7%.

`COc1ccc(-n2c(O)c(C=NCC(c3ccco3)N3CCCC3)c3ccccc3c2=O)cc1OC` (centres unmarked): the “hERG current change (%, negative = inhibition) at 10uM” value was found to be 3.34%.

For the compound `CC1CCc2c(sc3ncn(Cc4ccc(C(=O)O)cc4)c(=O)c23)C1` (centres unmarked), the “hERG current change (%, negative = inhibition) at 10uM” value is on record as 4.62%.

For the compound `CN(C)CCCOC(=O)c1ccc(Br)cc1`, the “hERG current change (%, negative = inhibition) at 10uM” value is reported as -36%.

As to `CCCn1c(SCC(=O)NC2CCCC2)nc2c1c(=O)n(C)c(=O)n2C`, the “hERG current change (%, negative = inhibition) at 10uM” value is listed as -6.13%.

Turning to `CSc1sc(C(=O)NN)c2c1C(O)CCC2` (centres unmarked), the “hERG current change (%, negative = inhibition) at 10uM” value is 11.5%.

For `CCOc1ccccc1OCCCCCc1c(C)n[nH]c1C`, the “hERG current change (%, negative = inhibition) at 10uM” value was -11.9%.

On to `O=C(Nc1cccc(C(F)(F)F)c1)C(Sc1ncnc2ccccc12)c1ccccc1` (centres unmarked), for which the “hERG current change (%, negative = inhibition) at 10uM” value turned out to be 0.968%.

In the case of `C=CCOc1c(Br)cc(/C=N/NC(N)=O)cc1OC`, the “hERG current change (%, negative = inhibition) at 10uM” value is on record as -26.4%.

`O=S(=O)(c1ccc2nc(Cc3cccc(C(F)(F)F)c3)[nH]c2c1)N1CCOCC1`: the “hERG current change (%, negative = inhibition) at 10uM” value is listed as -30%.

On to `COc1ccc2c(c1OC)C(=O)N(c1ccc(O)cc1)C2=O`, for which the “hERG current change (%, negative = inhibition) at 10uM” value stood at 13.4%.

With `O=C(NCc1ccco1)C(c1cccs1)N(C(=O)Cc1cccs1)c1ccccc1` (centres unmarked), the “hERG current change (%, negative = inhibition) at 10uM” value is 7.49%.

For the compound `CC1CC1C(=O)OCC(=O)NCc1ccc(Cl)cc1Cl` (centres unmarked), the “hERG current change (%, negative = inhibition) at 10uM” value was -15.2%.

Turning to `CCn1c(O)c(C=NC2CCCC2)sc1=S`, the “hERG current change (%, negative = inhibition) at 10uM” value is on record as -13.3%.

In the case of `C=CCCCCCCCCc1nc(SCC(C)=O)n[nH]1`, the “hERG current change (%, negative = inhibition) at 10uM” value amounted to 4.57%.

`CCC1(CC)NC(=O)N(CC(=O)Nc2sc3c(c2C(N)=O)CCC3)C1=O`: the “hERG current change (%, negative = inhibition) at 10uM” value is -13.6%.

With `COc1ccc(CCNC(=O)CCc2ccc(OC)cc2)cc1`, the “hERG current change (%, negative = inhibition) at 10uM” value came to 5.42%.

For the compound `Cc1ccc(C(=O)Nc2ccccc2C(=O)N2CCOCC2)cc1[N+](=O)[O-]`, the “hERG current change (%, negative = inhibition) at 10uM” value is given as -1.89%.

On to `O=C1CN(C(=O)NCC(=O)N[C@@H](Cc2ccccc2)C(=O)O)c2ccccc2N1`, for which the “hERG current change (%, negative = inhibition) at 10uM” value was found to be 15.4%.

Regarding `CCOc1ccccc1N1CC(C(=O)N(Cc2nnc(-c3ccccc3Cl)o2)C2CC2)CC1=O` (centres unmarked), the “hERG current change (%, negative = inhibition) at 10uM” value is listed as -16.8%.

Take `COc1ccc(S(=O)(=O)N2CCC(C(=O)N(CC(C)C)C3CCS(=O)(=O)C3)CC2)cc1OC` (centres unmarked): the “hERG current change (%, negative = inhibition) at 10uM” value turned out to be 9.74%.

As to `C/C(CC(O)c1ccc2ccccc2n1)=N/O` (centres unmarked), the “hERG current change (%, negative = inhibition) at 10uM” value is on record as -19.7%.

For `CCOc1ccc2c(c1)cc(CN(C(=O)CC)C1CCCCC1)c1nnnn12`, the “hERG current change (%, negative = inhibition) at 10uM” value was -42.6%.
